Laboratory results: the supplement of paper PMC3334620
Over roughly 33,000 sequences, “E-score (-0.5 to 0.5)” has its median near -0.054; the highest 2% begin near 0.35. The list shows a part of the results.

Target: T1, Stb5 (UniProt P38699)
T1 sequence: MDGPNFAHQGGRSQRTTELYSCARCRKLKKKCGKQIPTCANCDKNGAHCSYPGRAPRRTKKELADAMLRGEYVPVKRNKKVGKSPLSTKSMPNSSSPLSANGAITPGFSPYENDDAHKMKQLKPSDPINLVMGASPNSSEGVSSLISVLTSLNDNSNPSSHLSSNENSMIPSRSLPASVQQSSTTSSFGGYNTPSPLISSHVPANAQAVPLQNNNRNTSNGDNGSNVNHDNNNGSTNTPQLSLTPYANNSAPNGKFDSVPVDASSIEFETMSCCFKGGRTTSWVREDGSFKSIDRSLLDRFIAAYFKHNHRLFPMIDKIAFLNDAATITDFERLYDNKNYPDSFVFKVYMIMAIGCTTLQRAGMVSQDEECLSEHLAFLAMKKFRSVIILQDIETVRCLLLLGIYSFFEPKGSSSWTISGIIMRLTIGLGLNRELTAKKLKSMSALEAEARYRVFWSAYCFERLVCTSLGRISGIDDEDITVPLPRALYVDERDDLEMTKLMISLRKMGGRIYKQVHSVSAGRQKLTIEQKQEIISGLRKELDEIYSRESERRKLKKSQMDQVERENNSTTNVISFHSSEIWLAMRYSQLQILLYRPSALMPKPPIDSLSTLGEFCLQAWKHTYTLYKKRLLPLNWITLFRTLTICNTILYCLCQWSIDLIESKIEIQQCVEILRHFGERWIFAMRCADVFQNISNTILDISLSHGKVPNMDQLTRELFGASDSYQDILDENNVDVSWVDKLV
Experiment: PBM E-score (8-mer binding enrichment) (E-score (-0.5 to 0.5)); higher = stronger / more preferred TF binding; most listed sequences are background and not binding sites
Conditions: protein concentration: 200 nM; construct: GST-full length
In short: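 For each ungapped eight-base word taken together with its reverse complement, the Universal PBM Analysis Suite assigned an E-score. Binding data came from GST-tagged yeast transcription factors, applied at about 100-200 nM, on universal all-10-mer Agilent arrays made double-stranded by primer extension. Fluorescent anti-GST marked bound protein, and scans were normalised with masliner.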

Sequence | PBM E-score
CTGGGCAA | -0.0222
ACTGGTAG | -0.166
CAATTTAA | 0.0424
CAAGGGGC | -0.167
TAATGACA | -0.0686
ACATCCGA | 0.312
ACACAATG | -0.3
AAGACGCG | -0.0265
CCGCTACG | 0.355
CGGTTCTC | 0.065
GAGGCACC | 0.179
ACCTGTTG | -0.058
AGATAGCC | 0.0746
CCCGACGC | 0.388
ATCTTCTG | 0.111
CGCAGACC | 0.00233
CGGCCCTC | 0.16
GGGATCAC | 0.0287
AGTAACGG | 0.215
CCGATAGC | 0.24
AGGAGTAT | -0.261
AACATGGA | -0.102

Sequence | PBM E-score
GACCTGGC | -0.162
GATGTGCC | 0.0775
GGGATAGA | 0.128
AAGAAGAC | -0.0592
GGACCGAC | 0.318
CACAGTGG | -0.0596
CAGAATTC | -0.0843
CCCGATCA | 0.323
AACCCACA | -0.21
ATGCTGGA | -0.171
AGACAAAA | -0.134
CACCGCAA | 0.368
GCTCCTCC | -0.242
GCACTCGC | -0.101
AAGTGACA | 0.0166
GCAGCGGA | 0.197
AATCTCAA | -0.0716
ACTTAGCA | -0.0867
CCACCTCA | -0.116
GGTGTTAC | 0.4
AACACGAC | -0.168
GAGCTTCC | 0.0768

Sequence | PBM E-score
CATCCATA | -0.0155
CCTCCGCA | 0.15
GGGTGTGA | -0.0466
ACAATCGG | 0.323
GCATTGAC | -0.0989
CACAGGAA | -0.257
GCTAGCAC | 0.0767
TACCCATA | -0.208
CGATAGGC | 0.0483
CTTCATCA | -0.214
CGTGAAAA | -0.137
CCCGGAGA | 0.27
GCTGACGA | -0.341
GCGTGCGA | -0.165
GTGCTGCA | 0.0941
GGAGGAAA | 0.216
ATCAGGGC | -0.218
GATAACAC | 0.139
CAAGAATG | -0.139
ACATACAC | -0.0653
AGGTATCC | -0.211
AGGGACTA | -0.0339

Sequence | PBM E-score
ATGGTGAC | -0.192
AATTCCCG | 0.363
AATGATGG | -0.169
CAGAACTC | -0.175
AACGCCGC | 0.448
GTAGTAAC | 0.12
CCCTATAG | -0.104
GATCCAAC | 0.102
CGTTTACC | 0.0535
CTTACAAC | -0.117
CTGAGCAG | -0.209
GCGACGCC | 0.0434
CGGGTGAC | 0.142
CAGTAGAA | -0.325
AACTTCCT | -0.172
CTATTCTA | 1e-05
GCCGTCAC | 0.224
AGAATATG | -0.153
CACAAGGA | -0.31
ACTGGGGG | -0.28
